Measured values: the supplement of paper PMC12230231
± gives the standard deviation of the averaged measurements. Restriction of a single-cycle SIVsab GFP reporter by TRIM5α v1-loop variants in CRFK cells. Human variants: read share among cells still uninfected after two challenges over input, higher = gained restriction. Rhesus variants: share among infected cells over input, higher = lost restriction. Reporter dose not given per row. No active / inactive call per row; the paper calls a change when both replicates lie above its controls (mean + 2 SD of stop or wild-type variants, or the top frameshift score). Residues outside the varied loop are taken from Swiss-Prot. The paper reads the human single-substitution scores as noise; they and the rhesus combinations repeat poorly (rank correlation 0.3 to 0.4), indel scores repeat only for the top variants, rhesus substitutions well (0.9).

Each sequence was assayed on SIVsab (simian immunodeficiency virus of sabaeus monkeys), single-cycle GFP reporter, in CRFK cells (assay: enrichment among uninfected cells over input (fold); higher = stronger restriction). Details: library: human / rhesus combinations.
Description: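 Pools of CRFK cells expressing variants of the TRIM5α v1 loop were challenged with the single-cycle reporter, sorted by GFP and sequenced; mean of two replicates.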
Sequence “MASGILVNVKEEVTCPICLELLTQPLSLDCGHSFCQACLTANHKKSMLDKGESSCPVCRISYQPENIRPNRHVANIVEKLREVKLSPEGQKVDHCARHGEKLLLFCQEDGKVICWLCERSQEHRGHHTFLTEEVAREYQVKLQAALEMLRQKQQEAEELEADIREEKASWKTQIQYDKTNVLADFEQLRDILDWEESNELQNLEKEEEDILKSLTNSETEMVQQTQSLRELISDLEHRLQGSVMELLQGVDGVIKRTENVTLKKPETFPKNQRRVFRAPDLKGMLEVFRELTDVRRYWVDVTVAPNNISCAVISEDKRQVSSPKPQIIYQARGTRFQSLVNFNYCTGILGSQSITSGKHYWEVDVSKKTAWILGVCAGFQPDAMCNIEKNENYQPKYGYWVIGLEEGVKCSAFQDSSFHTPSVPFIVPLSVIICPDRVGVFLDYEACTVSFFNITNHGFLIYKFSHCSFSQPVFPYLNPRKCGVPMTLCSPSS [human TRIM5α, 330-340 = QARGTRFQSLV]” has an enrichment of 0.277 ± 0.39.
“MASGILVNVKEEVTCPICLELLTQPLSLDCGHSFCQACLTANHKKSMLDKGESSCPVCRISYQPENIRPNRHVANIVEKLREVKLSPEGQKVDHCARHGEKLLLFCQEDGKVICWLCERSQEHRGHHTFLTEEVAREYQVKLQAALEMLRQKQQEAEELEADIREEKASWKTQIQYDKTNVLADFEQLRDILDWEESNELQNLEKEEEDILKSLTNSETEMVQQTQSLRELISDLEHRLQGSVMELLQGVDGVIKRTENVTLKKPETFPKNQRRVFRAPDLKGMLEVFRELTDVRRYWVDVTVAPNNISCAVISEDKRQVSSPKPQIIYGAPGTRFTFQTFTNFNYCTGILGSQSITSGKHYWEVDVSKKTAWILGVCAGFQPDAMCNIEKNENYQPKYGYWVIGLEEGVKCSAFQDSSFHTPSVPFIVPLSVIICPDRVGVFLDYEACTVSFFNITNHGFLIYKFSHCSFSQPVFPYLNPRKCGVPMTLCSPSS [human TRIM5α, 330-340 = GAPGTRFTFQTFT]” gave an enrichment of 0.159 ± 0.042.
“MASGILVNVKEEVTCPICLELLTQPLSLDCGHSFCQACLTANHKKSMLDKGESSCPVCRISYQPENIRPNRHVANIVEKLREVKLSPEGQKVDHCARHGEKLLLFCQEDGKVICWLCERSQEHRGHHTFLTEEVAREYQVKLQAALEMLRQKQQEAEELEADIREEKASWKTQIQYDKTNVLADFEQLRDILDWEESNELQNLEKEEEDILKSLTNSETEMVQQTQSLRELISDLEHRLQGSVMELLQGVDGVIKRTENVTLKKPETFPKNQRRVFRAPDLKGMLEVFRELTDVRRYWVDVTVAPNNISCAVISEDKRQVSSPKPQIIYQAPGTLYTFQTLTNFNYCTGILGSQSITSGKHYWEVDVSKKTAWILGVCAGFQPDAMCNIEKNENYQPKYGYWVIGLEEGVKCSAFQDSSFHTPSVPFIVPLSVIICPDRVGVFLDYEACTVSFFNITNHGFLIYKFSHCSFSQPVFPYLNPRKCGVPMTLCSPSS [human TRIM5α, 330-340 = QAPGTLYTFQTLT]” gave an enrichment of 0.346 ± 0.35.
Sequence “MASGILVNVKEEVTCPICLELLTQPLSLDCGHSFCQACLTANHKKSMLDKGESSCPVCRISYQPENIRPNRHVANIVEKLREVKLSPEGQKVDHCARHGEKLLLFCQEDGKVICWLCERSQEHRGHHTFLTEEVAREYQVKLQAALEMLRQKQQEAEELEADIREEKASWKTQIQYDKTNVLADFEQLRDILDWEESNELQNLEKEEEDILKSLTNSETEMVQQTQSLRELISDLEHRLQGSVMELLQGVDGVIKRTENVTLKKPETFPKNQRRVFRAPDLKGMLEVFRELTDVRRYWVDVTVAPNNISCAVISEDKRQVSSPKPQIIYQARGTLFTFPSLTNFNYCTGILGSQSITSGKHYWEVDVSKKTAWILGVCAGFQPDAMCNIEKNENYQPKYGYWVIGLEEGVKCSAFQDSSFHTPSVPFIVPLSVIICPDRVGVFLDYEACTVSFFNITNHGFLIYKFSHCSFSQPVFPYLNPRKCGVPMTLCSPSS [human TRIM5α, 330-340 = QARGTLFTFPSLT]” has an enrichment of 0.781 ± 0.34.

Same assay, conditions: library: insertions and deletions
With “MASGILVNVKEEVTCPICLELLTQPLSLDCGHSFCQACLTANHKKSMLDKGESSCPVCRISYQPENIRPNRHVANIVEKLREVKLSPEGQKVDHCARHGEKLLLFCQEDGKVICWLCERSQEHRGHHTFLTEEVAREYQVKLQAALEMLRQKQQEAEELEADIREEKASWKTQIQYDKTNVLADFEQLRDILDWEESNELQNLEKEEEDILKSLTNSETEMVQQTQSLRELISDLEHRLQGSVMELLQGVDGVIKRTENVTLKKPETFPKNQRRVFRAPDLKGMLEVFRELTDVRRYWVDVTVAPNNISCAVISEDKRQVSSPKPQIIYGARGTRYQTFVNFSQSITSGKHYWEVDVSKKTAWILGVCAGFQPDAMCNIEKNENYQPKYGYWVIGLEEGVKCSAFQDSSFHTPSVPFIVPLSVIICPDRVGVFLDYEACTVSFFNITNHGFLIYKFSHCSFSQPVFPYLNPRKCGVPMTLCSPSS [human TRIM5α, 8-codon deletion at 343]” the enrichment was 4.21 ± 4.7.
“MASGILVNVKEEVTCPICLELLTQPLSLDCGHSFCQACLTANHKKSMLDKGESSCPVCRISYQPENIRPNRHVANIVEKLREVKLSPEGQKVDHCARHGEKLLLFCQEDGKVICWLCERSQEHRGHHTFLTEEVAREYQVKLQAALEMLRQKQQEAEELEADIREEKASWKTQIQYDKTNVLADFEQLRDILDWEESNELQNLEKEEEDILKSLTNSETEMVQQTQSLRELISDLEHRLQGSVMELLQGVDGVIKRTENVTLKKPETFPKNQRRVFRAPDLKGMLEVFRELTDVRRYWVDVTVAPNNISCAVISEDKRQVSSPKIIYGARGTRYQTFVNFNYCTGILGSQSITSGKHYWEVDVSKKTAWILGVCAGFQPDAMCNIEKNENYQPKYGYWVIGLEEGVKCSAFQDSSFHTPSVPFIVPLSVIICPDRVGVFLDYEACTVSFFNITNHGFLIYKFSHCSFSQPVFPYLNPRKCGVPMTLCSPSS [human TRIM5α, 2-codon deletion at 325]” showed an enrichment of 0.522 ± 0.026.
Work on “MASGILVNVKEEVTCPICLELLTQPLSLDCGHSFCQACLTANHKKSMLDKGESSCPVCRISYQPENIRPNRHVANIVEKLREVKLSPEGQKVDHCARHGEKLLLFCQEDGKVICWLCERSQEHRGHHTFLTEEVAREYQVKLQAALEMLRQKQQEAEELEADIREEKASWKTQIQYDKTNVLADFEQLRDILDWEESNELQNLEKEEEDILKSLTNSETEMVQQTQSLRELISDLEHRLQGSVMELLQGVDGVIKRTENVTLKKPETFPKNQRRVFRAPDLKGMLEVFRELTDVRRYWVDVTVAPNNISCAVISEDKRQVSSPKPQIIYGARGTTFVNFNYCTGILGSQSITSGKHYWEVDVSKKTAWILGVCAGFQPDAMCNIEKNENYQPKYGYWVIGLEEGVKCSAFQDSSFHTPSVPFIVPLSVIICPDRVGVFLDYEACTVSFFNITNHGFLIYKFSHCSFSQPVFPYLNPRKCGVPMTLCSPSS [human TRIM5α, 3-codon deletion at 335]” yielded an enrichment of 0.334 ± 0.26.
“MASGILVNVKEEVTCPICLELLTQPLSLDCGHSFCQACLTANHKKSMLDKGESSCPVCRISYQPENIRPNRHVANIVEKLREVKLSPEGQKVDHCARHGEKLLLFCQEDGKVICWLCERSQEHRGHHTFLTEEVAREYQVKLQAALEMLRQKQQEAEELEADIREEKASWKTQIQYDKTNVLADFEQLRDILDWEESNELQNLEKEEEDILKSLTNSETEMVQQTQSLRELISDLEHRLQGSVMELLQGVDGVIKRTENVTLKKPETFPKNQRRVFRAPDLKGMLEVFRELTDVRRYWVDVTVAPNNISCAVISEDKRQVSSPKPQIIYGARGTRYTGILGSQSITSGKHYWEVDVSKKTAWILGVCAGFQPDAMCNIEKNENYQPKYGYWVIGLEEGVKCSAFQDSSFHTPSVPFIVPLSVIICPDRVGVFLDYEACTVSFFNITNHGFLIYKFSHCSFSQPVFPYLNPRKCGVPMTLCSPSS [human TRIM5α, 9-codon deletion at 337]” was tested, and the enrichment was 1.37 ± 0.35.
For “MASGILVNVKEEVTCPICLELLTQPLSLDCGHSFCQACLTANHKKSMLDKGESSCPVCRISYQPENIRPNRHVANIVEKLREVKLSPEGQKVDHCARHGEKLLLFCQEDGKVICWLCERSQEHRGHHTFLTEEVAREYQVKLQAALEMLRQKQQEAEELEADIREEKASWKTQIQYDKTNVLADFEQLRDILDWEESNELQNLEKEEEDILKSLTNSETEMVQQTQSLRELISDLEHRLQGSVMELLQGVDGVIKRTENVTLKKPETFPKNQRRVFRAPDLKGMLEVFRELTDVRRYWVDVTVAPNNISCAVISEDKRQVSSPKPQIIYGARGTRYYQTFVNFNYCTGILGSQSITSGKHYWEVDVSKKTAWILGVCAGFQPDAMCNIEKNENYQPKYGYWVIGLEEGVKCSAFQDSSFHTPSVPFIVPLSVIICPDRVGVFLDYEACTVSFFNITNHGFLIYKFSHCSFSQPVFPYLNPRKCGVPMTLCSPSS [human TRIM5α, 1-codon duplication at 336]”, the enrichment was 0.992 ± 0.73.
